T1: UNK ZnF1-3 (human, UniProt Q9C0B0 31-174)
T1 sequence: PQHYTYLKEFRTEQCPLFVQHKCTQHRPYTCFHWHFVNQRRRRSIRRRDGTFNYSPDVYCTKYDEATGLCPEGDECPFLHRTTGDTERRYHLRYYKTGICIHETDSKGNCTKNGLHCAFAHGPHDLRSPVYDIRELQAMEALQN

B1: chrX:20248510:20248511:+_ENSMUSG00000001924_ENSMUST00000001989|perfect_dup|FALSE|FALSE (ssRNA)
RNA: GGGAGUUCUACAGUCCGACGAUCGACCUGACUGACGAUGCCUCCACGGAUGUAGUCGGAGAAGUUGGAGGUGUCACAGAUGCUAAAGGUAUAAGGACCCAGGACUUUGAUCUCCAUGGGCUGAUUUCCGUUGAGUUCAACCAUCAACAGAGGAUUGAGCAUCA
B2: chr11:87793130:87793131:-_ENSMUSG00000020483_ENSMUST00000020775|mus_hu|FALSE|FALSE (ssRNA)
RNA: GGGAGUUCUACAGUCCGACGAUCAGGAGAUGUGGCAGGGUCUCAGGCCCUGCUCCAGAAAUGAGGGAGAGAUGAACACAAACCAGACACUUUCAACUGGCCACACAGUCUGGGAGGGCAGGGGGAAACACAGAUUUGGACAUUCAACAGAGGAUUGAGCAUCA
B3: chr1:163117127:163117128:-_ENSG00000143248_ENST00000313961|hu_mus|hu_hu_hu_mus_False|38_38 (ssRNA)
RNA: GGGAGUUCUACAGUCCGACGAUCUGCUACAAAGGAUGUAACUCAACUCACAGGGCAACUUUUGGAAGCCUGACCAGAUGACUACUUGAUUAGCUCCUGAUAAAACUCAGAGCGCACAAAGCGGGGCAGAGAAUCCUUCUCCAUCAACAGAGGAUUGAGCAUCA
B4: chr12:42180722:42180723:-_ENSMUSG00000036295_ENSMUST00000043884|mus_hu|mus_mus_mus_hu_True|8_8 (ssRNA)
RNA: GGGAGUUCUACAGUCCGACGAUCCUGUAGGAGAAGAAUCUGUGUGUUAGCUGGCAAUCUGGCUGGGAAAGUUAAAAGACCUAAAUCAUUACAAUCCACUGUAGAUGCUUCCAUAUAAAUGGAUCUGGGGGUAAACCAAGGCCUCAACAGAGGAUUGAGCAUCA
B5: chr11:51934471:51934472:+_ENSMUSG00000020349_ENSMUST00000020608|perfect_dup|motif|central (ssRNA)
RNA: GGGAGUUCUACAGUCCGACGAUCGAUUGCAGCUUGGUUACCACAACGAUAGCAAUAGUUUGGAGCACUGAAAAUUGUUACGGCGUUCCGGUCAUGGCACCAGUUAUAUCCCUCCAUCACCAGCUGGUGAGCUCUGGACACCAACAACAGAGGAUUGAGCAUCA
B6: chr1:28564368:28564369:+_ENSG00000130770_ENST00000335514|hu_hu|FALSE|FALSE (ssRNA)
RNA: GGGAGUUCUACAGUCCGACGAUCCUCAAUCUCCUUCUUAUGAUGAACGAUUUCUUCUUCAUGGUGUUUUUUCAAAGCUGCCAGUUGUUCUCUACUCUGUGCUCGGAAAUAUCGUUCCUCUUCAGCCUGCUCUCUCUUUCCGAACAACAGAGGAUUGAGCAUCA
B7: 62954625_62958383_5419_CDS_ENSG00000116641_ENST00000251157|human|control|control (ssRNA)
RNA: GGGAGUUCUACAGUCCGACGAUCUGCUUCUUGAAGUUUACCAUGAAUUGUGGAUAGUUUCUUUGCAUCCCGAUUAGCUUCAUGAAUAGGAAUAAGUACUUUGUAAACUUCAUUAACUGCUUCAUACAUGCCAGCCAUAGAGAACAACAGAGGAUUGAGCAUCA
B8: chr1:66461069:66461070:+_ENSMUSG00000015222_ENSMUST00000114013|mus_mus|FALSE|FALSE (ssRNA)
RNA: GGGAGUUCUACAGUCCGACGAUCUUGACUAUCUGGUUUUACAGUGACUGGGCUUUCAUCAGCGACAGGUGGCAAACUGGUACUACUCUCUGCAAGCAUAGCCUCUGAUGGGACUGAUUUCCUCCUGGCAACCUCAGCAUCUGCCAACAGAGGAUUGAGCAUCA
B9: chr21:34924380:34924381:+_ENSG00000159140_ENST00000381679|hu_mus|FALSE|FALSE (ssRNA)
RNA: GGGAGUUCUACAGUCCGACGAUCCCUAGGUGAUACCCUAUAGGGAUCCGGAGUUAGUCUGUAGGGAUCAUGGCCUAAUCUAUAAGGGUCUUGUCCUAACCUGUAAGCAUCAUGGCCUAACCUGUAGGGGUCAUGACCCAACCUCAACAGAGGAUUGAGCAUCA
B10: chr4:58499471:58499472:-_ENSMUSG00000038668_ENSMUST00000055018|mus_hu|motif|central (ssRNA)
RNA: GGGAGUUCUACAGUCCGACGAUCAGCAUAGAGAACCACCAUUACCACAAAGGUCACCAAGUUGAAAAUGGCCCAGAAGACGGAGUAAGAGUCACUGUAGAGGGGUGCCAUGUUGGAACAAUUUUCAAUAUCACAGAUACAGUUCAACAGAGGAUUGAGCAUCA
B11: 109126449_109126569_1254_3pUTR_ENSMUSG00000028557_ENSMUST00000030284|mouse|control|control (ssRNA)
RNA: GGGAGUUCUACAGUCCGACGAUCUGUCAGUAACUUUUCAGAAAAGAAUUUGGGUGGGAGAAGAAACUUAUUUCAUUUAGGAAAAAUAACAACUAUCUUUUUCCUAAGCUUCAACACACACAAUUUAAACAUGUACAGUUGCUGCAACAGAGGAUUGAGCAUCA
B12: chr7:82072735:82072736:-_ENSG00000153956_ENST00000356860|hu_hu|FALSE|FALSE (ssRNA)
RNA: GGGAGUUCUACAGUCCGACGAUCAGUGACGGCCGAAGGGAACGGCUCCUCCGACGAGGGGCCGAUGAGCAAAGAUUGGAAAAGUGUCAGAGUCAAGGCCAGCAGGCAGCCAGCAGCCAUCUUCGCGAUCGAAGAUCAAUGCCCCAACAGAGGAUUGAGCAUCA
B13: chrX:129364583:129364584:-_ENSG00000056277_ENST00000370978|hu_hu|FALSE|FALSE (ssRNA)
RNA: GGGAGUUCUACAGUCCGACGAUCAGUCUUUGGCUCUUUCUCAGUGACUCCUUCAUGCCUUCCAUAAUAAAACUCAUUGACUAACAUGAUCAACUUUCCUGUCUCUGAAUCAGUCUUGUCUUCAUCACAUGGACGUUCUGAUUUCAACAGAGGAUUGAGCAUCA
B14: chr17:64801638:64801639:+_ENSG00000154229_ENST00000413366|hu_mus|hu_hu_hu_mus_False|98_108 (ssRNA)
RNA: GGGAGUUCUACAGUCCGACGAUCUAUAAAUACAUAUAUAUACACACACAUAUAUAGUAAAACCCUAGUUAAACGUGUAAAGUAGCCAUUCAUUUUUAAAAUUACAUCUACAUUAAAAAAUUAAUAUAUCUGAUAGAGUGCCAGCAACAGAGGAUUGAGCAUCA
B15: chr22:19452774:19452775:-_ENSG00000070010_ENST00000399523|hu_hu|hu_hu_hu_mus_False|58_98 (ssRNA)
RNA: GGGAGUUCUACAGUCCGACGAUCCUUCUCAUUGUAGUUGAUGGCAAUCACAUCUCCAGUCGUCAGACAGGCGAAGUUCCUAAGUGCAUUUUCUAAUACCGCUUUAGGGUUGGUAAUAUCCAGGAAGUCUGGGCUCUGAGGCUGCAACAGAGGAUUGAGCAUCA
B16: 30680257_30680466_1086_3pUTR_ENSG00000156860_ENST00000287468|human|control|control (ssRNA)
RNA: GGGAGUUCUACAGUCCGACGAUCGAGGCCCCUCCUCACCAGCCCGGGCCUUGGGAGUAGCAGGAGAAACUCGGAGCUGGGGCCGUGAGAAGGGGAGGUCCCUGUCCUUCUCCUCCUUGGUGAUGGAGGGCUCCCUCCGCUCCACAACAGAGGAUUGAGCAUCA
B17: 52134009_52137203_1859_CDS_ENSG00000112118_ENST00000229854|human|control|control (ssRNA)
RNA: GGGAGUUCUACAGUCCGACGAUCUGUAACUGGAGAUGUCCUGGCGGUGUCUGAGCUCAUGCUAUCCUGGCUGCGCAGGCGUGAAUACUCUUCUGCAAUGUAGGUGGCCGACUCCUGUGUCAGGACAGGCUUGAUGAUUUUGGCCAACAGAGGAUUGAGCAUCA
B18: 43050054_43058615_114_3pUTR_ENSMUSG00000036002_ENSMUST00000107956|mouse|control|control (ssRNA)
RNA: GGGAGUUCUACAGUCCGACGAUCGCAGCUUCUGGGCUCAGUUGGACCCUGUAGUUCCGUGGGUCCUGUUGCACUUGAGAAGGUAGUGGAUUGGGAUAGUGACUGAGCAGCCCUCCUUGCAGCCUGGGCCUGCAAACCUCUCCCCAACAGAGGAUUGAGCAUCA
B19: chr15:80415083:80415084:+_ENSG00000086666_ENST00000558494|hu_hu|motif|central (ssRNA)
RNA: GGGAGUUCUACAGUCCGACGAUCAUCUUCUGUUUCAGGUACUGCUUUGUCCACAGAUGUACUGUCCAAUUGAGAAGAUGCGGCAGAUUCUGAUAAAAGUGACUGAUUUGAUACAGGGCUGGGCUGCAUAGAUGAAGAUGUAGACAACAGAGGAUUGAGCAUCA
B20: 60977291_60980254_566_CDS_ENSMUSG00000042506_ENSMUST00000041683|mouse|control|control (ssRNA)
RNA: GGGAGUUCUACAGUCCGACGAUCUUUAGUUGGUUCCCAAGUUGAAAACUUCUCUCCAACACCUUGCAUCUUCCAAGCCUUGCGCUGCUCCUCUUUGGCAAUGAUUUCUAUGUCUUUGUCAUAGAUGUAGUCCUGACACAAGAACAACAGAGGAUUGAGCAUCA
B21: 121704358_121709814_988_5pUTR_ENSMUSG00000042744_ENSMUST00000119892|mouse|control|control (ssRNA)
RNA: GGGAGUUCUACAGUCCGACGAUCCCUAUAUAAAACAUCGGCGACAGGCAGGGAGCCCAGCUCAGUCUGUCUCUGCAGCAGGUGAACUGUGUGGACAAAGGUCUUCAGUGACCCCCUGGCACACGCCAAAGCCACCAGGGCAGCCAACAGAGGAUUGAGCAUCA
B22: chr11:29999966:29999967:-_ENSMUSG00000020315_ENSMUST00000011877|mus_hu|FALSE|FALSE (ssRNA)
RNA: GGGAGUUCUACAGUCCGACGAUCCAUGUCGUGUGUUAGUAAGUGAUGCCAGAUACAAAUGGUUUGGUCUGUAGAGUUAAUGUGGAGCUGCACUGUGGCUGCAGCAAGAUCAUAAUAUGCGAUCUGUUUAAUAAAGGUUAGCCCCAACAGAGGAUUGAGCAUCA

The list shows a part of the results.

This note sets out measurements from paper PMC12136788.

The experiment deals with T1, UNK ZnF1-3. Briefly: nsRBNS (natural sequence RNA bind-n-seq); RBNS binding buffer (assumed for nsRBNS): 25 mM Tris pH 7.5, 150 mM KCl, 3 mM MgCl2, 0.01% Triton X-100, 500 ug/ml BSA, 20 U/ml SUPERase-In, 4 C; UNK is unkempt and MSI1 is Musashi-1; names of the RNAs are library labels; protein concentration not given here; high values mean tight binding.
In turn, B1 gave a binding signal of 0.463 enrichment R. To B2 belongs 1.71 enrichment R; to B3, 1.12 enrichment R. To B4 belongs 1.15 enrichment R.

With B5, the binding signal is 1.16 enrichment R. Consider B6, for which the binding signal came to 0.498 enrichment R. To B7 belongs 1.01 enrichment R. To B8 belongs 0.706 enrichment R; to B9, 0.637 enrichment R. To B10 belongs 2.31 enrichment R; to B11, 1.19 enrichment R; to B12, 1.53 enrichment R. In the case of B13, the binding signal turned out to be 0.661 enrichment R. To B14 belongs 2.22 enrichment R; to B15, 0.951 enrichment R; to B16, 0.829 enrichment R. To B17 belongs 0.523 enrichment R. To B18 belongs 0.927 enrichment R.

As for B19, the binding signal was 1.12 enrichment R. To B20 belongs 0.563 enrichment R; to B21, 0.438 enrichment R. To B22 belongs 1.6 enrichment R.
